In the supplement of paper PMC4466236:
The full ranking holds about 33,000 sequences; the median of “E-score (dimensionless, -0.5 to 0.5)” is about -0.058, and the highest 2% start at about 0.35. The list shows a part of the results.

system: MvaT; test: PBM 8-mer E-score (mean of HK and ME arrays) (E-score (dimensionless, -0.5 to 0.5)); higher = stronger relative binding preference; most listed sequences are background and not binding sites
Procedure: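 Protein binding microarray: GST-tagged full-length MvaT (P. aeruginosa PAO1) bound to two universal double-stranded 60-mer arrays (ME and HK), each with a constant 25-mer primer and a variable 35-mer region covering all 8-mers. The 8-mer E-score (rank-based, range -0.5 to 0.5, >0.45 = specific binding) is the mean of the two arrays.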

Row | Sequence | PBM 8-mer E-score
1 | AGATTAAC | 0.173
2 | ATACCAGG | -0.0238
3 | CCACGGGC | -0.301
4 | AACAGGAA | 0.107
5 | CCAGTCCA | -0.13
6 | CCCAAATC | -0.0884
7 | CATCTGTC | -0.123
8 | AGCTGCAG | -0.111
9 | GTTTTAGA | 0.142
10 | CCTAAAGG | -0.187
11 | CCAGGATC | -0.19
12 | ATCACTCG | 0.0455
13 | AGCAGGTC | -0.147
14 | AGACTGCA | -0.0965
15 | CACTAGGA | -0.133
16 | TATTGGCA | 0.277
17 | AAGCACTA | 0.0275
18 | TCGCCCCA | -0.0873
19 | AACTACGA | 0.138
20 | GCTCCTTA | -0.053
21 | CTAACACA | 0.105
22 | CCCGAGCC | -0.268
23 | CCACTACC | -0.221
24 | GGAGCGCC | -0.354
25 | CCTCCGAC | -0.219

Row | Sequence | PBM 8-mer E-score
26 | CTATTATA | 0.44
27 | ATGTTAGA | 0.236
28 | CAACTTTC | 0.243
29 | GAGAGGTA | -0.112
30 | CGGTGCAG | -0.202
31 | ACCTCTAC | -0.178
32 | GGACCCCA | -0.231
33 | CTCTTTGC | 0.0154
34 | AACAGTTC | 0.0419
35 | GTTAACAA | 0.296
36 | ATAGGAGC | -0.0152
37 | AATTTCGA | 0.296
38 | GAAGAGAA | -0.104
39 | AAGACGGA | -0.128
40 | TATCTGAA | 0.238
41 | CTCGACCC | -0.168
42 | ATAGGCTA | 0.0423
43 | CCTAATTC | 0.0847
44 | TGCAGGAA | -0.0725
45 | AAAAACCG | 0.0602
46 | GTAGATTA | 0.229
47 | CTAGACAC | -0.199
48 | CGATGAAA | -0.0223
49 | CAAATCAC | 0.135
50 | AGATGCCT | -0.192

Row | Sequence | PBM 8-mer E-score
51 | AGTAAACG | 0.162
52 | CATATGGG | -0.151
53 | CCGATTAA | 0.227
54 | GCCGTCCC | -0.224
55 | GTCGCACA | -0.00327
56 | GCGCCAAA | 0.104
57 | CCTCGGAC | -0.169
58 | ACTCGACG | -0.111
59 | GCCTCCGC | -0.24
60 | ACATCGTC | -0.0722
61 | CATTGTCC | 0.024
62 | AATACTTC | 0.238
63 | CGTAACCC | -0.135
64 | GCTCCGCC | -0.241
65 | ACTGTTAG | 0.0818
66 | AGTCTACC | -0.177
67 | AGGGACCA | -0.257
68 | GCATAGAC | -0.148
69 | AGAAACAT | 0.251
70 | ACGTTCGG | -0.0975
71 | GCACGAGC | -0.272
72 | ACAAGTGA | -0.00345
73 | CGAAGTGA | -0.168
74 | GACACCCC | -0.249
75 | AGGACAGC | -0.196

Row | Sequence | PBM 8-mer E-score
76 | CACTAACC | 0.0207
77 | AGCGCGCC | -0.105
78 | GCGTACTA | -0.0183
79 | ATGAGCAA | 0.00257
80 | AAGACGAT | 0.0161
81 | CCAACGGA | -0.179
82 | ACCGCGTA | -0.0828
83 | AACGATCT | -0.158
84 | ATACAGGA | 0.138
85 | GCTACTCA | -0.264
86 | AGCGCACT | -0.175
87 | ACCATCGG | -0.298
88 | CTCAACTC | -0.139
89 | CCGGTCAC | -0.249
90 | AGAAACTC | -0.0284
91 | AAAGGGAA | -0.0681
92 | GGGGGAAA | -0.135
93 | CTAAATGC | 0.0441
94 | CAAATACG | 0.15
95 | CGGGGTTC | -0.313
96 | AACGAATG | 0.0643
97 | CAGTATAC | 0.221
98 | CGCCGAGC | -0.18
99 | CCTTGTGC | -0.146
100 | TGCCCCAA | -0.118

Row | Sequence | PBM 8-mer E-score
101 | CGTAGACA | -0.256
102 | GAGGTTAC | -0.0113
103 | GAAAATAC | 0.134
104 | GGAGCCCC | -0.366
105 | CAAAGAGC | -0.111
106 | CTTTTCAA | 0.0875
107 | ATTCAGCA | 0.154
108 | GGCGCCCA | -0.152
109 | CTGGTGGA | -0.309
110 | AAATCATG | -0.0303
111 | CCGTAAAG | -0.061
112 | TCCCCCGA | -0.189
113 | CATGTCAC | 0.08
114 | ATACTGAG | 0.167
115 | AATCGATG | 0.174
116 | AAAGGTAC | -0.00283
117 | ATGCGAAG | -0.0255
118 | CCAAAATA | 0.251
119 | GATGGTTA | 0.054
120 | CAGACAAG | -0.0147
121 | AAATCGAA | 0.156
122 | CCAGGAGG | -0.379
123 | CAGGCCAG | -0.234
124 | AGGTTGCA | -0.146
125 | ATCCGAGG | -0.119

Row | Sequence | PBM 8-mer E-score
126 | CAACAGAA | -0.0613
127 | ATTAGAAG | 0.239
128 | CTTAGTGA | -0.0659
129 | AGACCATA | 0.00218
130 | CGAGCCGA | -0.276
131 | ATGACTCC | -0.0824
132 | CTCGGGCA | -0.195
133 | AAGGGCCG | -0.17
134 | GGTACCCA | -0.264
135 | CCGCTACA | -0.13
136 | ATTACCAA | 0.223
137 | AACATGCC | 0.0493
138 | GCAAGTCC | -0.0911
139 | GACATGGA | -0.0841
140 | CCTGGAGA | -0.164
141 | GATGTGAC | -0.139
142 | GATCGATC | 0.0487
143 | CACTCGAG | -0.162
144 | CCTCCTCC | -0.302
145 | CGGTGGAC | -0.18
146 | GCCAGCCA | -0.194
147 | ATGTACCA | 0.189
148 | CAACTACA | 0.221
149 | CCCTGGGA | -0.317
150 | GACTTGAA | 0.15

Row | Sequence | PBM 8-mer E-score
151 | CCCTGAAG | -0.186
152 | AGAAACCC | -0.162
153 | TAATGTAA | 0.373
154 | AGCAGCCA | -0.164
155 | CAAGAAAA | -0.021
156 | TACCCGCA | -0.0359
157 | CAATGGAG | -0.228
158 | AGTCACCG | -0.163
159 | GCTTACAA | 0.0244
160 | AGCCTCGA | -0.127
161 | AAAGGGAT | -0.00372
162 | AGAAAGCC | -0.178
163 | ACCCGCGG | -0.205
164 | CTCTCCTC | -0.213
165 | CGTTCTAC | -0.00845
166 | ATATACTC | 0.364
167 | CACTATAA | 0.312
168 | AAGCCGGC | -0.227
169 | AGCGTATA | 0.177
170 | GGAACCAC | -0.199
171 | CATCCAGG | -0.18
172 | CCAAGGTC | -0.214
